Measured values as given in the supplement of paper PMC10126150.
Values marked as one replicate rest on one cluster of the flow cell; about a third of the high ones do not repeat.

system: ATP; assay: switch fluorescence ratio, 500 uM ATP over buffer (Cy3 cluster intensity, sum of 5 cycles each) (fold (ratio)); higher = stronger signal-on switching upon ATP binding; sequences stand for … in TCGTCGGCAGCGTCAGATGTGTATAAGAGACAGTTTTTTTTTTTTTTTTTTTTTTTTT…TC; details: aptamer strand: ATP DNA aptamer (quencher-CACCTGGGGGAGTATTGCGGAGGAAGG + anchor), 100 nM annealed; ATP concentration: 500 uM; one replicate
In short: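 Values give the fluorescence ratio for each switch-domain sequence, averaged from per-cluster ratios of summed target-cycle to summed buffer-cycle Cy3 intensity. The Cy3-labelled switching-strand clusters sat on a modified Illumina MiSeq flow-cell, were annealed to 100 nM quencher-labelled ATP aptamer, and were imaged in selection buffer, then after 15 min with 500 uM ATP at 22 °C. Five cycles ran with NaOH stripping and re-annealing between them, and clusters outside 100-1000 RFU were excluded.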
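Also: ATP exposure 15 min at 22 °C before imaging.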

Sequence | switch fluorescence ratio
GTATATTTGG | 0.948
GTATCACTTA | 1.02
GTATCAGGCA | 1.01
GTATCCCTTG | 0.941
GTATCGCTTT | 0.987
GTATCTCTTA | 0.974
GTATGATAGA | 1.04
GTATGCAGGA | 0.999
GTATGCTACC | 1.22
GTATGGCGCT | 0.984
GTATGGGAGC | 0.99
GTATGGGCGA | 1.02
GTATGGTCGC | 1.03
GTATGGTTGG | 0.932
GTATGTATGT | 0.919
GTATTAAGCC | 1.03
GTATTACACG | 0.984
GTATTACGAA | 0.96
GTATTCAGCA | 0.988
GTATTCGCA | 1.05
GTATTTCATG | 0.974
GTATTTGA | 0.947
GTCAACTGGT | 1.02
GTCAACTGTT | 0.996
GTCAAGTACG | 1.24
GTCACAAGTA | 0.992

Sequence | switch fluorescence ratio
GTCACACTTT | 0.966
GTCACCAAAT | 1.04
GTCACTCAAT | 1.08
GTCAGATTCC | 1.06
GTCAGGGCAA | 0.961
GTCAGGGT | 0.989
GTCAGTGTGG | 1.01
GTCAGTTAAA | 0.988
GTCATAAACG | 1.04
GTCATAAAGT | 1.02
GTCATAACTC | 1.06
GTCATAAGTA | 1.01
GTCATACTAT | 1.01
GTCATAGACA | 1.02
GTCATAGCA | 1.01
GTCATCATTA | 1.04
GTCATCGACC | 1.02
GTCATGAAGG | 0.975
GTCATGAGTG | 0.967
GTCATGATTG | 0.933
GTCATGCGGC | 0.961
GTCATGGGGC | 1.03
GTCATGTACC | 1.13
GTCATTAGCT | 1.02
GTCATTTTTA | 0.994
GTCCACACAA | 1

Sequence | switch fluorescence ratio
GTCCAGCGCG | 1.07
GTCCAGTCGA | 0.988
GTCCCTCGAA | 1
GTCCGAAAAA | 0.983
GTCCGAGGTT | 0.993
GTCCGCTGGG | 1.3
GTCCGGGGG | 1.01
GTCCTAACGT | 0.969
GTCCTCCATG | 1.19
GTCCTCTTTC | 0.968
GTCCTGGCGT | 0.948
GTCCTGTTAA | 1
GTCGAAACCC | 1.04
GTCGACCTGA | 1.01
GTCGAGAAGA | 0.987
GTCGAGTTGG | 0.995
GTCGATGAGA | 1.04
GTCGATTGGT | 0.941
GTCGCAGGAA | 0.985
GTCGCATAGT | 1.05
GTCGCCCTGA | 0.995
GTCGCTACTG | 0.955
GTCGCTCAAG | 1
GTCGCTGTTG | 1.01
GTCGGAGGGA | 0.975
